From the supplement of paper PMC3334620
The full ranking holds about 33,000 sequences; the median of “E-score (-0.5 to 0.5)” is about -0.04, and the highest 2% start at about 0.36. This is one part of the list.

Biological target: T1, Hmlalpha2 (UniProt P0CY09)
T1 sequence: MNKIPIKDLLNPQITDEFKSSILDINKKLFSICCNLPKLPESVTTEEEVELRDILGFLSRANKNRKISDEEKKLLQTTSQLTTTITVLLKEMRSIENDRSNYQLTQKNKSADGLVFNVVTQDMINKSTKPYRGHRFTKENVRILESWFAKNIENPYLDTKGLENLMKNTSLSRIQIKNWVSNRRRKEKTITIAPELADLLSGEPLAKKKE
Assay: PBM E-score (8-mer binding enrichment) (E-score (-0.5 to 0.5)); higher = stronger / more preferred TF binding; most listed sequences are background and not binding sites
Conditions: protein concentration: 200 nM; construct: GST-full length
Summary of the method: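 For each ungapped eight-base word taken together with its reverse complement, the Universal PBM Analysis Suite assigned an E-score. Binding data came from GST-tagged yeast transcription factors, applied at about 100-200 nM, on universal all-10-mer Agilent arrays made double-stranded by primer extension. Fluorescent anti-GST marked bound protein, and scans were normalised with masliner.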

| Sequence | PBM E-score |
| --- | --- |
| GCACTCGC | -0.106 |
| ACTTTTTC | -0.113 |
| CAGCCTCA | -0.201 |
| AAAATAGC | -0.223 |
| AGTAACTG | 0.141 |
| ACGGACAA | 0.0112 |
| AGCAAACT | 0.141 |
| CGTGTTGC | 0.301 |
| CGATCGCG | -0.0248 |
| CCGCTACG | -0.107 |
| CGGTTCTC | -0.0536 |
| ACCTGTTG | 0.123 |
| GAGGCACC | -0.421 |
| CAAGGGGC | -0.229 |
| AAGACGCG | 0.0172 |
| ACACAATG | 0.275 |
| TAATGACA | 0.239 |
| ACATCCGA | 0.0299 |
| CACTTATC | -0.0472 |
| ACTGGTAG | -0.0265 |
| CAATTTAA | 0.211 |
| CTGGGCAA | -0.132 |
| ACGACTTC | 0.0834 |
| ATATTCAC | 0.0166 |
| GGCGTACA | 0.144 |

| Sequence | PBM E-score |
| --- | --- |
| CCACGTCC | -0.284 |
| ATAGATAC | 0.0935 |
| TTACTGAA | 0.14 |
| CCGTATGA | 0.00811 |
| GTACACGA | 0.425 |
| AGCAGTCC | -0.283 |
| CGCGCTGA | -0.247 |
| GACATTCA | 0.0904 |
| CTAAGACA | 0.136 |
| GACAAATC | -0.0792 |
| AGGCCCTG | -0.136 |
| CCGGTTTC | -0.166 |
| GAAAAAAA | 0.0886 |
| TCTGCTCA | -0.0593 |
| CAAAAGGG | -0.125 |
| CGCCTTAC | 0.0577 |
| GAAAAGAC | -0.00681 |
| GCGCTGCC | -0.265 |
| GAAATGCA | -0.0871 |
| CAATCGAG | -0.336 |
| CGGTTTTA | -0.0131 |
| ACCATGTC | 0.296 |
| CATTCCCC | -0.14 |
| CCTAAGCA | -0.222 |
| CTGCTATA | -0.125 |

| Sequence | PBM E-score |
| --- | --- |
| GCGTGACA | 0.265 |
| CGCTGGAA | -0.202 |
| GGAAGTAA | 0.093 |
| GACATGAC | 0.29 |
| GGTAATTA | 0.25 |
| CCGAATTC | -0.123 |
| ATCACGGG | -0.251 |
| AAGCTCTA | 0.0212 |
| CGACGGCA | -0.134 |
| GAAGCTGA | 0.0281 |
| CACTACGA | 0.1 |
| AGATAACG | 0.114 |
| GGATTAGA | -0.216 |
| GATTTACA | 0.429 |
| AGTTTTTG | 0.131 |
| GCACCGAC | -0.173 |
| ACGTTGCT | 0.183 |
| CATAATGC | 0.015 |
| CACTGTAC | -0.129 |
| GGCAGGAC | -0.262 |
| GCCTCCCA | -0.272 |
| GAACGACA | 0.0971 |
| CTTATTTC | 0.129 |
| ATTACTTA | 0.3 |
| CGTTACCA | 0.104 |

| Sequence | PBM E-score |
| --- | --- |
| CCGTACCA | -0.176 |
| AACCCGCG | 0.155 |
| CTAAACAG | -0.128 |
| CCCCGACG | -0.126 |
| CATAGCAC | 0.147 |
| AACATGTG | 0.395 |
| CGGTGACA | 0.05 |
| CTAGACGC | -0.0851 |
| CTAAAGAG | -0.158 |
| AAAAGTGC | -0.139 |
| GAATCATA | 0.0242 |
| CATCACTA | 0.025 |
| GTCATAAC | -0.0123 |
| CATTTAAA | 0.179 |
| CCACCGGG | -0.282 |
| AGGCCAGA | -0.206 |
| CCGGTTTA | 0.0123 |
| CCGCAAGA | -0.263 |
| AGATCATA | 0.195 |
| ACAGAAAA | 0.0867 |
| AATATAGA | 0.187 |
| AAACTCCT | -0.244 |
| AGGTGCAC | -0.159 |
| AAGTTTAT | 0.164 |
| GCATAGCA | -0.0391 |

| Sequence | PBM E-score |
| --- | --- |
| GACCTTGC | -0.356 |
| GGGGTCTA | 0.00917 |
| GTATCCCA | -0.0842 |
| ATTCGCAA | 0.0556 |
| AAAGGCAA | 0.0184 |
| CACTACTA | 0.00081 |
| CACCCATG | 0.126 |
| CGAATGAC | 0.185 |
| GTAAAGAA | 0.355 |
| CATTTAAG | -0.0527 |
| AAGAAGGC | -0.243 |
| CGTAGCTC | 0.213 |
| CACTCTAA | -0.0791 |
| GACGCCTC | -0.0494 |
| GGGAATTA | 0.102 |
| ACCGTTAC | 0.0699 |
| GCAGTTAC | 0.211 |
| CATTATAG | 0.0352 |
| GTTACAGA | 0.0217 |
| ATCTCTCG | -0.162 |
| CCCACGCC | -0.189 |
| ATACGAAT | 0.162 |
| TCGATTCA | 0.0507 |
| CCTCATCA | -0.0191 |
| ATGACTTC | -0.0744 |

| Sequence | PBM E-score |
| --- | --- |
| ACTTTCCT | -0.269 |
| CGCAAGCC | 0.116 |
| GACGGCAA | -0.119 |
| CATTTGGC | -0.0276 |
| ACGCCTGA | 0.151 |
| GTGACTTA | 0.0596 |
| TATGCGCA | -0.0846 |
| AAGGTAAG | 0.0306 |
| CAATCGCG | -0.178 |
| ACGCGACC | 0.25 |
| GGCAGGGA | -0.256 |
| TCATGGCA | -0.177 |
| TAACCCAA | 0.0356 |
| CGTCGAGC | -0.0453 |
| AGTAAGGA | -0.0302 |
| CCCAATTC | 0.179 |
| CAATAAGC | -0.176 |
| AGTAGTAC | 0.196 |
| ATATGAGC | -0.152 |
| GGCATACC | -0.211 |
| AAGGTTAT | -0.0785 |
| CAAAGCTG | 0.0593 |
| AACCGAGT | -0.138 |
| AACTGTTA | 0.115 |
| CCTGCGTA | 0.304 |

| Sequence | PBM E-score |
| --- | --- |
| GGCAAAGA | -0.0294 |
| ACACGTCG | 0.302 |
| AATGGTTC | 0.172 |
| GAGTGGCC | -0.211 |
| AGTGCGTG | 0.0463 |
| ATGAGACA | 0.00947 |
| GACCGAAC | -0.0102 |
| GCATCGCC | -0.156 |
| ACGGGCGG | -0.257 |
| TCAGCAAA | 0.0311 |
| ATTTCCTA | 0.127 |
| AAGTTTCT | -0.0231 |
| ATCCGTCA | -0.126 |
| ACGCCTAT | -0.0198 |
| CAAGCCGG | 0.0428 |
| TCGACTCA | 0.0619 |
| AAGCTTTC | 0.0357 |
| GAGAGCGC | -0.255 |
| CGCGACCG | 0.0378 |
| GCAGTCTA | -0.189 |
| AGTTCGGG | -0.0754 |
| GCATCGTA | -0.0214 |
